{"source": "PubChem BioAssay AID1508623", "about": "(National Center for Advancing Translational Sciences (NCATS), 2021)", "note": "Screen size: about 48,000 compounds; about 450 (0.94%) were called active. This list was built around the results that the source calls inconclusive (neither active nor inactive); the mix of calls is not that of the screen. Calls come from the whole dose curve; as a rule, active = well fitted inhibition curve with a large enough effect; inconclusive = small, poorly fitted or top-dose-only effect; inactive = no such curve, though single readings can be large or run the other way. Where the call is inconclusive, the potency comes from a doubtful curve fit. Potency is the fitted concentration of half-maximal effect; tags give direction and shape of the fitted curve."}
{"assay": "Primary qHTS for Identification of Small Molecule Inhibitors of Huntingtin Promoter Activity; note: nearly all actives have a fitted effect of over 50% in size", "details": "HEK293 HTT promoter firefly luciferase reporter (activity 0% = vehicle and -100% = no light), 24 h; activity change, negative = inhibition: at 57.5 µM (top of the series)", "in_short": "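Luminescence was read after Dual-Glo reagent and a 10 min room-temperature incubation. Values were normalized to vehicle (0% activity) and zero RLU (-100% activity). Reporter HEK293 cells had been exposed to compounds (up to 57.5 uM final) for 24 h.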"}
{"compound": "CCSc1ncc(Cl)c(C(=O)Nc2ccc(S(=O)(=O)N(C)c3ccccc3)cc2)n1", "Potency": "inconclusive: 31.6 µM [inhibitor, single point]"}
{"compound": "Cc1cc(Nc2cccc(Cl)c2)nc2ccc(NC(=O)c3cccnc3)cc12", "Potency": "inconclusive: 35.5 µM [inhibitor, single point]"}
{"compound": "Cc1ccc(NC(=O)C(=O)NCC2(c3ccccc3)CCCC2)cc1Cl", "Potency": "inactive"}
{"compound": "O=C(NCCc1ccccc1)c1cnn(-c2ccc(F)cc2)c1-n1cccc1", "Potency": "inconclusive: 39.8 µM [inhibitor, partial curve, poor fit]"}
{"compound": "Cc1ccc(NC(=O)CSc2nc3n[nH]c(C)c3c(=N)n2-c2cccc(C)c2)cc1", "Potency": "inconclusive: 20 µM [inhibitor, single point]"}
{"compound": "CCC(=O)N1CCc2cc(Br)cc(S(=O)(=O)N3CCCC(C(=O)N(C)c4ccc(Br)cc4)C3)c21", "note": "(centres undefined)", "Potency": "inactive"}
{"compound": "COc1ccccc1CNC(=O)c1ccc(-c2nc(CN3CCc4ccccc43)c(C)o2)cc1", "Potency": "active: 17.8 µM"}
{"compound": "Cc1ccc(Cl)cc1N1CCN(c2ncnc3onc(C)c23)CC1", "Potency": "inconclusive: 2.51 µM [inhibitor, full curve, poor fit]"}
{"compound": "Clc1ccc(N2CCN(c3ncnc4c3nc3n4CCCC3)CC2)cc1", "Potency": "active: 1.41 µM"}
{"compound": "Cn1cnc(=N)c2[nH]cnc21", "Potency": "inactive"}
{"compound": "COc1cccc(-n2c(SCC(=O)c3ccc(Cl)cc3)nc3c([nH]c4ccccc43)c2=O)c1", "Potency": "inconclusive: 28.2 µM [inhibitor, partial curve]"}
{"compound": "CSc1ccc(CNC(=O)c2ccc(NC(=O)c3nsc4ccccc34)cc2)cc1", "Potency": "inconclusive: 10 µM [inhibitor, partial curve, poor fit]"}
{"compound": "COc1ccc(Cl)cc1NC(=O)Cn1c(=O)n(CCC(=O)NCc2ccc3c(c2)OCO3)c(=O)c2ccccc21", "Potency": "inconclusive: 39.8 µM [inhibitor, single point]"}
{"compound": "COc1cc(NC(=O)COCc2cc(-c3ccc(F)cc3)on2)cc(OC)c1OC", "Potency": "inconclusive: 8.91 µM [inhibitor, partial curve]"}
{"compound": "O=C(Nc1ccc(Cl)c(-c2nc3cc(Cl)ccc3o2)c1)c1cc([N+](=O)[O-])ccc1N1CCOCC1", "Potency": "inconclusive: 31.6 µM [inhibitor, partial curve, poor fit]"}
{"compound": "Cn1cc(C(=O)N2CCN(c3cccc(C(F)(F)F)c3)CC2)c2c3ccccc3n(C)c2c1=O", "Potency": "inconclusive: 31.6 µM [inhibitor, single point]"}
{"compound": "CC(C)(C)NC(=O)[C@H]1CC[C@H]2[C@@H]3CC[C@H]4NC(=O)C=C[C@]4(C)[C@H]3CC[C@]12C", "Potency": "inconclusive: 6.11 µM [inhibitor, full curve]"}
{"compound": "COc1ccccc1N1CCN(c2nc(-c3ccc(C)cc3)nc3ccccc23)CC1", "Potency": "inconclusive: 39.8 µM [inhibitor, single point]"}
{"compound": "CCOc1ccc(NC(=O)CN(c2ccc(Cl)cc2C)S(=O)(=O)c2ccccc2)cc1", "Potency": "inconclusive: 39.8 µM [inhibitor, partial curve, poor fit]"}
{"compound": "CC(C)OC(=O)CCCC=CC[C@@H]1[C@H](C=C[C@@H](O)COc2cccc(C(F)(F)F)c2)[C@H](O)C[C@@H]1O", "Potency": "inconclusive: 19.3 µM [inhibitor, partial curve]"}
{"compound": "CCCOc1c(Cl)cc(C(=O)N(Cc2cccc(OC)c2)C2CCS(=O)(=O)C2)cc1Cl", "note": "(centres undefined)", "Potency": "inconclusive: 20 µM [inhibitor, single point]"}
{"compound": "CCOc1ccc(NC(=O)c2cnc(N3CCCCC3)c3ccccc23)cc1", "Potency": "inactive"}
{"compound": "Cc1ccc(C(=O)N(CCCN)[C@@H](c2oc3cc(Cl)ccc3c(=O)c2Cc2ccccc2)C(C)C)cc1", "Potency": "inactive"}
{"compound": "Cc1ccsc1CN(C(=O)c1oc2cc(Br)ccc2c1C)C1CCS(=O)(=O)C1", "note": "(centres undefined)", "Potency": "inconclusive: 35.5 µM [inhibitor, partial curve, poor fit]"}
{"compound": "CCCC(=O)n1nc(-c2ccco2)nc1NCc1ccccc1Cl", "Potency": "inactive"}
{"compound": "CC(C)CCNC(=O)c1ccc2c(c1)N(Cc1cccc(Cl)c1)C(=O)c1ccccc1S2", "Potency": "inconclusive: 20 µM [inhibitor, partial curve, poor fit]"}
{"compound": "O=C(Nc1ccc(F)c(Cl)c1)c1cc(S(=O)(=O)N2CCc3ccccc3C2)ccc1F", "Potency": "inconclusive: 22.4 µM [inhibitor, single point]"}
{"compound": "COc1ccc(CNC(=O)CN2N=C(c3ccccc3)CCC2=O)c(OC)c1", "Potency": "inactive"}
{"compound": "Cc1ccc(-n2nnc(-c3nsc(NC(=O)c4cccc(Cl)c4)n3)c2C)cc1C", "Potency": "inconclusive: 28.2 µM [inhibitor, single point]"}
{"compound": "CCOc1cccc(CC(=O)N2CCc3c([nH]c4ccccc34)C2c2ccccc2)c1OCC", "note": "(centres undefined)", "Potency": "inconclusive: 25.1 µM [inhibitor, single point]"}
{"compound": "CCN(CC)c1ccc(CN(C(=O)Cc2coc3ccc(C)cc23)C2CCS(=O)(=O)C2)cc1", "note": "(centres undefined)", "Potency": "inconclusive: 39.8 µM [inhibitor, single point]"}
{"compound": "CCC1CN(C(=O)N2CCC(C(=O)NCCc3ccccc3C)CC2)c2ccccc2O1", "note": "(centres undefined)", "Potency": "inconclusive: 35.5 µM [inhibitor, single point]"}
{"compound": "COc1ccc(C(=O)Nc2cc(C(C)C)c(O)c(S(=O)(=O)c3ccc(Cl)cc3)c2C)cc1", "Potency": "inactive"}
{"compound": "CCN(Cc1ccccc1)Cc1c(O)ccc2c(=O)c(-c3ccccc3)c(C(F)(F)F)oc12", "Potency": "inconclusive: 25.1 µM [inhibitor, single point]"}
{"compound": "O=C(Cn1ccc2cc(S(=O)(=O)N3CCCCC3)ccc21)NCCc1ccc(Cl)cc1", "Potency": "inconclusive: 20 µM [inhibitor, single point]"}
{"compound": "COc1ccc(CCC(=O)Nc2nc3ccc(Cl)cc3s2)cc1OC", "Potency": "inconclusive: 43.2 µM [inhibitor, single point]"}
{"compound": "Cc1ccc(-c2c(C)n3c4c(=O)n(C)c(=O)n(C)c4nc3n2-c2cccc(O)c2)cc1", "Potency": "inactive"}
{"compound": "Cc1cc(C)cc(NC(=O)CSc2oc(-c3cccs3)nc2S(=O)(=O)c2ccccc2)c1", "Potency": "inconclusive: 31.6 µM [inhibitor, partial curve, poor fit]"}
{"compound": "O=C(CCn1ccc2cc(S(=O)(=O)N3CCCC3)ccc21)NCc1cccc(Br)c1", "Potency": "inconclusive: 22.4 µM [inhibitor, partial curve, poor fit]"}
{"compound": "O=[N+]([O-])c1cn2c(n1)OC[C@@H](OCc1ccc(OC(F)(F)F)cc1)C2", "Potency": "inactive"}
{"compound": "Cc1ccc(C(=O)NCC(c2cccnc2)N2CCc3ccccc32)cc1C", "note": "(centres undefined)", "Potency": "inconclusive: 35.5 µM [inhibitor, single point]"}
{"compound": "Cc1cc(NC(=O)c2cc(-c3ccc(Cl)cc3)on2)nn1Cc1ccc(Cl)cc1", "activity change, negative = inhibition": "inactive: -25.8% [at 11.5 µM]"}
{"compound": "Cc1cccc(CN2CCc3nc(N4CCN(c5ccccn5)CC4)ncc3C2)c1", "Potency": "inconclusive: 10 µM [inhibitor, partial curve, poor fit]"}
{"compound": "COc1cccc(NC(=O)C2CCN(C(=O)N3CC(C)Oc4ccccc43)CC2)c1", "note": "(centres undefined)", "Potency": "inconclusive: 35.5 µM [inhibitor, partial curve, poor fit]"}
{"compound": "O=C(NCCSc1c(-c2ccc(F)cc2)[nH]c2ccccc12)c1ccc(S(=O)(=O)N2CCOCC2)cc1", "Potency": "inconclusive: 17.8 µM [inhibitor, partial curve, poor fit]"}
{"compound": "COc1cccc(-n2c(SCc3ccccc3C)nc3c([nH]c4ccccc43)c2=O)c1", "Potency": "inconclusive: 31.6 µM [inhibitor, single point]"}
{"compound": "Cc1ccc(C)c(NC(=O)CN(CCc2ccccc2)S(=O)(=O)c2ccccc2)c1", "Potency": "inconclusive: 28.2 µM [inhibitor, partial curve, poor fit]"}
{"compound": "Cc1cc(C)cc(Nc2sc(C(=O)c3ccccc3)c(N)c2S(=O)(=O)c2ccccc2)c1", "Potency": "inconclusive: 14.1 µM [inhibitor, single point]"}
{"compound": "CC(C)(C)CC(C)(C)c1ccc(OCCOCC[N+](C)(C)Cc2ccccc2)cc1", "Potency": "inconclusive: 25.1 µM [inhibitor, single point]"}
